B1: TPR 5TU (parent)
chain: GGAUCUUCUCGAUCUAACAAAAAAGACAAAUCUGCCACAAAGCUUGAGAGCAUCUUCGGAUGCAGAGGCGGCAGCCUUCGGUGGCGCGAUAGCGCCAACGUUCUCAACUAUGACACGCAAAACGCGUGCUCCGUUGAAUGGAGUUUAUCAUG

Variants at the background level are over-represented here. Where only a bound is given, the exact number is not on record here.

This series covers variants of B1. The experiment in a line: polymerase ribozyme fitness, log enrichment relative to wild type (log ratio); higher = more active; in vitro selection for triplet polymerase activity. In outline: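 Mutant libraries of each subunit of a heterodimeric triplet polymerase ribozyme were built by PCR and transcribed. Each library went through one round of in vitro selection in triplicate: annealing with biotinylated primer, partner subunit and triplets, frozen incubation at −7 °C, gel excision of extended constructs, streptavidin-bead capture and RT-PCR. Input and output libraries were Illumina-sequenced; only genotypes with ≥10 input reads and ≥1 read per output were kept. Fitness is log2(genotype enrichment/wild-type enrichment), using inverse-variance-weighted replicate averages.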
Regarding GGAUCUUCUCGAUCUAACAAAAAAGACAAAUCUGCCACAAAGCUUGUGAACAUCUUCGGAUGCCGAGGCGGCAGCCUUCGGUGGCGCGAUAGCGCCAACGUUCUCAACUAUGACCCGCAAAACGCGUGCUCCGUUGAAUGGAGUUUAUCAUG [A47U G50A A64C A115C], the “polymerase ribozyme fitness (log ratio)” value is no more than -4.2. As for GGAUCUUCUCGAUCUAACAAAAAAGACAAAUCUGCCACAAAGCUUGUGAGCAUCUUCGGAUGCAGAGGCGGGAGCCUUCGGUGGCGCGAUAGCGCCAACGUUCUCAACUAUGAUACGCAUAACGCGUGCUCCGUUGAAUGGAGUUUAUCAUG [A47U C72G C114U A120U], the figure is no more than -4.2.

With GGAUCUUCUCGAUCUAACAAAAAAGACAAAUCUGCCACAAAGCUUGAAAGCAGCUUCGGAUGCAGAGGCGGCAGCCUUCCGUGGCGCGAUAGCGCCAACGUUCUCAACUAUGACACGCAAAACGCGUGCUCCGUUGAGUGGAGUUUAUCAUG [G48A U53G G80C A138G], the “polymerase ribozyme fitness (log ratio)” value was no more than -4.2. To GGAUCUUCUCGAUCUAACAAAAAAGACAAAUCUGCCACAAAGCUUGUGAGCAUCUUCGGAUGCAGAGGCGGCAGCCUUCGGUGGCGCGGUAGCGCCAACGUUCACAACAAUGACACGCAAAACGCGUGCGCCGUUGAAUGGAGGUUAUCAUG [A47U A89G U104A U109A U130G U144G] belongs no more than -4.2; to GGAUCUUCUCGAUCUAACAAAAAAGACAAAUCUGCCACAAAGCUUGUGCGCAUCUUUGGAUGCAGAGGCGGCAGCCUUCGGUGGCGCGAUAGCGCCAACGUUCUCAAGUAUGACACGCAAAACGCGUGCUCCGUUGAAUGGCGUUUAUCAUG [A47U A49C C57U C108G A142C], no more than -4.2; to GGAUCUUCUCGAUCUAACAAAAAAGACAAAUCUGCCACAAAGCUUGAAAGCAUCUUCGGAUGCAGAGGCGGCAGCCUUAGGUGGCGCGAUAGCGCCAACGGUCUCAACUAUGACACGCAAAACGCGUGCUCCGUUGAAUGGUGUUUAUCAUG [G48A C79A U101G A142U], no more than -4.2. To GGAUCUUCUCGAUCUAACAAAAAAGACAAAUCUGCCACAAAGCUUGAAAGCAUCUUCGGAUGCAGAGGCGGCAUCCUUCGGUGGUGCAAUAGCGCCAACGUUCUCAACUAUGACACGCAAAACGCGUGCUCCGUUGAAUGGAGUUUAUCAUG [G48A G74U C85U G88A] belongs no more than -4.2; to GGAUCUUCUCGAUCUAACAAAAAAGACAAAUCUGCCACAAAGCUUGGGAGCAUCGUCGGAUGCAGAGGCGGCAGCGUUCGGUGGCGCGAUUGCGCCAACGUUCUCAACUAUGACACGCAAAACGCGUGCUACUUUGAAUGGAGUUUAUCAUG [A47G U55G C76G A91U C131A G133U], no more than -4.2; to GGAUCUUCUCGAUCUAACAAAAAAGACAAAUCUGCCACAAAGCUUGUGAGCAUCUUCGGAUGCAGAGGCGGCAGACUUCGGUCGCGCGAUUGCGCCAACGUUCUCAACUAUGACACGCAAAACGCGAGCUCCGUUGAAUGGAGUUUAUCAUG [A47U C75A G83C A91U U127A], no more than -4.2. To GGAUCUUCUCGAUCUAACAAAAAAGACAAAUCUGCCACAAAGCUUGUGAGCAUCAUCGGAUGCCGAGGCGGCAGCCUUCGGUGGCGCGAUAGCGCCAACGUUCUCAACUAUGACACGCAAAACGCGUGCUCCGUUGAAUGGAGUUUAUCAUG [A47U U55A A64C] belongs no more than -4.2; to GGAUCUUCUCGAUCUAACAAAAAAGACAAAUCUGCCACAAAGCUUGUGGGCAGGUUCGGAUGCAGAGGCGGCAGCCUUCGGUGGCGUGAUAGCGCCAACGUUCUCAACUAUGACACGCAAAACGCGUGCUCCGUUGGAUGGAGUUUAUCAUG [A47U A49G U53G C54G C87U A137G], no more than -4.2. Take GGAUCUUCUCGAUCUAACAAAAAAGACAAAUCUGCCACAAAGCUUGGGAGCAUCUUCGGAUGCAGAGGCGGCAGCCUUCGGUGGCGCGAGAGCGCCAACGUUCUCAACUAUGACACGCAAAACGCGUGCUCCGUAGAAUGGAAUUUAUCAUG [A47G U90G U135A G143A]: the “polymerase ribozyme fitness (log ratio)” value was no more than -4.2. To GGAUCUUCUCGAUCUAACAAAAAAGACAAAUCUGCCACAAAGCUUGAAAGCAUCUUCGGAUGCAGAGCCGGCAGCCUUCGGUGGCGCGAUAGCGCCAACGUUCUCAACUAUGACACGCAAAACGCGUGCUCCGUUGAAUGGCGUUUAUCAUG [G48A G68C A142C] belongs no more than -4.2. To GGAUCUUCUCGAUCUAACAAAAAAGACAAAUCUGCCACAAAGCUUGAAAGCAUCUUCGGAUGCAGAUGCGGCGGCCUUCGGUGGCGCGAUAGCGCCAACGUUCUCAACUAUGACACGCAAAACCCGUGCUCCGUUGAAUGGAGUUUAUCAUG [G48A G67U A73G G124C] belongs no more than -4.2. To GGAUCUUCUCGAUCUAACAAAAAAGACAAAUCUGCCACAAAGCUUGUGAACAUCGUCGGAUGCAGAGGCGGCAGCCUUCGGUGGCGCGAUAGCACCAACGUUGUCAACUAUGACACGCAAAACGCGUGCUCCGUUGAAUGGAGAUUAUCAUG [A47U G50A U55G G94A C103G U144A] belongs no more than -4.2. For GGAUCUUCUCGAUCUAACAAAAAAGACAAAUCUGCCACAAAGCUUGGGAGCAUCUUCGGAUGCAGAGGCGGCAGCCUUCGGUGGCGAGAUAGCGCCAACGUUCUCAACUAUGACACGCAAAACGCGUGCUCCGUUGAAUGGAGUUUAUCAUG [A47G C87A], the “polymerase ribozyme fitness (log ratio)” value is no more than -4.2. To GGAUCUUCUCGAUCUAACAAAAAAGACAAAUCUGCCACAAAGCUUGAAAGCAUCUUCGUAUGCAGAGGCGGCAGCCUUCGGUUGCGCGAUAGCGCCAACGUUCUCAACUAUGACACGCAAAACGCGUGCUACGUUGAAUGGAGUUUACCAUG [G48A G59U G83U C131A U148C] belongs no more than -4.2; to GGAUCUUCUCGAUCUAACAAAAAAGACAAAUCUGCCACAAAGCUUGAAAGCAUCUUCGGAUGCAGAGGCGGCAGCCUUCGGUGGCGCGAUCGCGCCAACGUUCUCAACUAUGACACGCAAAACGCGUGCUCCGUUGAUAGGAGUUUAUCUUG [G48A A91C A138U U139A A150U], no more than -4.2. To GGAUCUUCUCGAUCUAACAAAAAAGACAAAUCUGCCACAAAGCUUGAAAGCAUCUUCGGAUGCAGAGGCGGCAGCCUUCGGUGGCGCGAUAACGCCAACGUUCUCAACUAUGACACGCAAAACGCGUGCUCCGUUGAAUGGAUUUAAUCAUG [G48A G92A G143U U146A] belongs no more than -4.2.
